Data as given in PubChem BioAssay AID651820 (National Center for Advancing Translational Sciences (NCATS), 2012).
The campaign covered roughly 340,000 compounds. About 12,000 (3.5%) were called active. The inconclusive results got no clear call from the source; some entries with a clear call stand among them for comparison. Calls come from the whole dose curve; as a rule, active = well fitted inhibition curve with a large enough effect; inconclusive = small, poorly fitted or top-dose-only effect, or another doubt; inactive = no such curve, though single readings can be large or run the other way. Potencies of inconclusive entries are left out as doubtful fits.

assay: qHTS Assay for Inhibitors of Hepatitis C Virus (HCV); conditions: Huh7.5.1 HCVcc-Cre (HCVcc is cell-culture hepatitis C virus) infection, luciferase reporter, 44 h; activity change, negative = inhibition: at 41.8 µM (top of the series)
In short: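 1,000 cells/well; 4 h culture; + compound; + HCVcc-Cre (~0.5 moi); 44 h; luciferase substrate, RT 15 min; read 15 sec.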
% is set by controls: 0 for no effect and ±100 for the full control effect; potency is the fitted concentration of half-maximal effect; tags give direction and shape of the fitted curve.

| SMILES | Potency | activity change, negative = inhibition |
| --- | --- | --- |
| CCn1c(=O)c2ccccc2n2c(SCC(=O)NCc3cccs3)nnc12 | inconclusive [inhibitor, single point] |  |
| O=C(COc1ccc(Br)cc1)N1CCN(Cc2ccc3c(c2)OCO3)CC1 | inconclusive [inhibitor, single point] |  |
| O=C(CSc1oc(-c2ccc(F)cc2)nc1S(=O)(=O)c1ccccc1)NCC1CCCO1 (stereo not given) | inactive |  |
| Cc1ccc(S(=O)(=O)/N=C(/Nc2cccc3ccccc23)c2ccc(F)cc2)cc1 | inconclusive [inhibitor, single point] |  |
| COc1cc(C(=O)Nc2ccc3c(c2)N(C(=O)CN2CCN(C)CC2)c2ccccc2CC3)cc(OC)c1OC | inconclusive [inhibitor, single point] |  |
| C=C1C(C)C2C(Cc3ccccc3)NC(=O)C23C(OC(C)=O)C=CC(C)(O)CC(C)CC=CC3C1O (stereo not given) |  | inactive: 18.2% |
| CCOC(=O)c1[nH]c2ccc(OC)cc2c1NC(=O)CCN1CCCC(C)C1 (stereo not given) | inconclusive [inhibitor, partial curve] |  |
| O=C1Cc2cc(S(=O)(=O)Nc3cccc([N+](=O)[O-])c3)cc3c2N1CCC3 | inconclusive [inhibitor, full curve, poor fit] |  |
| Cc1nn(C)c(Oc2cccc(Cl)c2)c1C#N |  | inactive: -15.7% |
| Cc1ccc(C(=O)N2CCCCC2)cc1S(=O)(=O)N1CCCC1 |  | inactive: -0.98% |
| CCCCN1Cc2ccccc2Oc2cc(Br)ccc2S1(=O)=O | inconclusive [inhibitor, single point] |  |
| CN(C)/C=C/c1oc2ccc(O)cc2c1[N+](=O)[O-] |  | inactive: -28.2% |
| CC1(C)C(C(=O)N2CCN(c3ccc(Cl)cc3)CC2)C1(C)C | inconclusive [inhibitor, single point] |  |
| N#Cc1ccc(OCC(O)CN2CCN(CC(O)COc3ccc(C#N)cc3)CC2)cc1 (stereo not given) |  | inactive: 19.1% |
| CCN(CC)C(=O)COc1cc(C)c(Cl)c(C)c1 | inconclusive [inhibitor, full curve] |  |
| Cc1ccsc1/C=N\NC(=O)c1ccc2c(c1)OCO2 |  | inactive: 4.21% |
| COc1ccc(C(C)(C)C)cc1NC(=O)c1ccoc1C | inconclusive [inhibitor, full curve] |  |
| O=C(NC(=S)Nc1ccccc1Br)c1ccc2c(c1)OCO2 | inconclusive [inhibitor, single point] |  |
| Cc1ccc(C)c(S(=O)(=O)/N=C(/Nc2ccccc2)c2ccccc2)c1 | inconclusive [inhibitor, single point] |  |
| Cc1cccc(NC(=O)CN(C)S(=O)(=O)c2cnc[nH]2)c1 |  | inactive: 4.84% |
